Experimental data published in PubChem BioAssay AID504466 (National Center for Advancing Translational Sciences (NCATS), 2011).
In all, about 330,000 compounds went through this assay and about 4,200 (1.3%) were called active. The shares of active, inactive and inconclusive entries below differ from those in the screen. Calls follow the shape of the dose curve; as a rule, active = well fitted activation curve with a large enough effect; inconclusive = small, poorly fitted or top-dose-only effect; inactive = no such curve, though single readings can be large or run the other way. Potencies beside an inconclusive call are fits to weak or partial responses and may not hold up.

Assay: qHTS screen for small molecules that induce genotoxicity in human embryonic kidney (HEK293T) cells expressing luciferase-tagged ELG1; also: nearly all actives have a fitted effect of over 60% in size
Settings: HEK293T ELG1-luciferase reporter, luminescence, 16 h; series mostly up to 46 µM
Method in brief: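 Step 1: seed 2,000 HEK293T ELG1-luciferase cells per well. Step 2: add compound or DMSO, incubate 16 hr at 37 °C. Step 3: ONE-Glo, 30 min at room temperature, read luminescence.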
Potency is read from the fitted curve at half-maximal effect; tags tell the direction and shape of the fitted curve.

SMILES	Potency
CCCc1ccc(-c2cc(C(=O)N3CCN(c4ccccn4)CC3)c3ccccc3n2)cc1	inconclusive: 0.92 µM [activator, full curve]
CCN(CC(=O)Nc1ccccc1C(F)(F)F)C(=O)c1ccc(=O)n(Cc2ccccc2)n1	inactive
O=C(CSc1nnc(-c2ccccc2O)o1)N1CCOCC1	inconclusive: 14.6 µM [activator, partial curve, poor fit]
NC(=O)C1CCN(c2nc(-c3ccccc3C(F)(F)F)cs2)CC1	inconclusive: 7.3 µM [activator, partial curve, poor fit]
COc1ccc(Nc2nc(N)nc(CSC(=S)N3CCCCC3)n2)cc1	inconclusive: 10.3 µM [activator, partial curve, poor fit]
COc1cc(C(C)=O)ccc1OCC(O)CNCC(O)c1ccccc1 (configuration not stated)	inactive
Cc1cnc(NC(=O)CCc2ccccc2)s1	inconclusive: 20.6 µM [activator, partial curve, poor fit]
CS(=O)(=O)Nc1ccc(C2=NN(C(=O)c3ccco3)C(c3ccco3)C2)cc1 (configuration not stated)	inactive
C=CCNC(=O)Cn1nnc(-c2ccc(-c3ccc(OC)cc3)cc2)n1	inconclusive: 2.82 µM [activator, partial curve]
CCCC(=O)c1ccc(N2CCCC2)c(F)c1	inconclusive: 10.3 µM [activator, partial curve, poor fit]
COc1cccc(-c2nnc(NC(=O)c3cccc(F)c3)o2)c1	inconclusive: 29.1 µM [activator, single point]
CCCCCC1CCC(C(=O)O)CC1 (configuration not stated)	inactive
Cc1cccnc1NC(=O)c1cc2ccccc2oc1=O	active: 2.06 µM
O=C(CCC1CCCCC1)Nc1nncs1	inactive
COc1ccc(C(=O)O)cc1S(=O)(=O)N(CCc1ccccc1)Cc1ccccc1	inactive
CCN(CC)S(=O)(=O)c1ccc(N2CCOCC2)c(NC(=O)C23CC4CC(CC(Cl)(C4)C2)C3)c1	inactive
COc1ccc(N/C=C(/C(C)=O)c2ccccc2)cc1	inconclusive: 18.4 µM [activator, partial curve, poor fit]
CC1CN(C(=O)Nc2ccc3c(c2)OCO3)CC(C)O1 (configuration not stated)	inconclusive: 18.4 µM [activator, single point]
COc1ccc(C(NC(C)=O)c2nccc3cc(OC)c(OC)cc23)cc1OC (configuration not stated)	inconclusive: 10.3 µM [activator, partial curve, poor fit]
CSc1nc(-c2ccc(N(C)C)cc2)c(C#N)c(=O)n1C	inconclusive: 11.6 µM [activator, partial curve]
COc1cc(/C=C/c2ccc3cccc(O)c3n2)ccc1O	active: 16.4 µM
O=C(Nc1ccc(-c2nc3cccnc3s2)cc1)c1ccc(Br)o1	active: 2.91 µM
Cc1ccc(C(=O)c2coc3c2C(=O)C(=O)c2ccccc2-3)cc1	active: 14.1 µM
CCCNC(=O)COC(=O)c1cc2c(=O)n3ccccc3nc2s1	inconclusive: 16.4 µM [activator, partial curve, poor fit]
COc1cccc(-c2ccc(SCc3ccccn3)nn2)c1	inconclusive: 3.66 µM [activator, full curve, poor fit]
CCCCc1ccc(NC(=S)N2CCCC2)cc1	inconclusive: 11.6 µM [activator, partial curve]

SMILES	Potency
COC(=O)CCC(=O)c1oc2ccccc2c1N	inconclusive: 9.2 µM [activator, single point]
c1ccc(-c2ncc3c(ccc4ccccc43)n2)cc1	active: 0.651 µM
COc1ccc(-c2nnc(SCC(=O)c3cccs3)o2)cc1	active: 10.3 µM
CN(C)/C=C/C(=O)c1ccc(Oc2ccccc2)cc1	active: 4.11 µM
Cc1ccc(C(=O)COc2cccc(NC(=O)c3ccco3)c2)cc1	inactive
COCCNC(=S)N/N=C/c1ccccc1C(=O)O	inactive
CC1=NN(c2ccccc2)C(=O)C1C(=O)C(=O)Nc1ccc(F)cc1 (configuration not stated)	inconclusive: 11.6 µM [activator, partial curve, poor fit]
c1coc(CN2CN=C(Nc3nc4ccccc4s3)NC2)c1	inconclusive: 18.4 µM [activator, single point]
Fc1ccc(-c2noc(-c3ccc4c(c3)CCO4)n2)cc1	inconclusive: 2.91 µM [activator, partial curve]
Cc1ccc(C(C)C)cc1OCC(=O)NC1CCCCCCC1	inconclusive: 20.6 µM [activator, single point]
Cc1ccc(-c2cc(=O)c3cc(Cl)ccc3[nH]2)cc1	inconclusive: 2.91 µM [activator, full curve]
CCCc1ccc(OCC(O)CN2CCCC2)cc1 (configuration not stated)	inactive
O=C(COC(=O)CCNS(=O)(=O)c1cccs1)Nc1ccccc1	inactive
COc1cc(NS(=O)(=O)c2ccc3ccccc3c2)c2ncccc2c1	inconclusive: 13 µM [activator, partial curve, poor fit]
COc1ccc(Cl)cc1N1C(=O)CN(Cc2cc(OC)c(OC)c(OC)c2)C1=S	inactive
COC(=O)c1ccc(CN2CCc3ccccc32)cc1	inactive
Cc1cccc2nc(CNc3ccc(F)cc3)cn12	inconclusive: 18.4 µM [activator, partial curve]
CCC(=O)Nc1ccc(NC(=O)Cc2ccccc2)cn1	inactive
COc1ccc(OCC(=O)N/N=C/c2ccncc2)cc1	inactive
COc1ccc(Cl)cc1C(=O)Nc1ccc2c(c1)OCO2	inconclusive: 20.6 µM [activator, partial curve, poor fit]
Cc1ccc(/C=N/N2C(=O)c3ccccc3NC2c2ccc(C)cc2)cc1 (configuration not stated)	inconclusive: 9.2 µM [activator, partial curve, poor fit]
COC(=O)Cn1c(=NC(=O)c2ccc(Cl)s2)sc2cc(C)ccc21	inconclusive: 16.4 µM [activator, partial curve, poor fit]
CC(=O)Nc1ccc(SCC(=O)Nc2sccc2C#N)cc1	inconclusive: 25.9 µM [activator, partial curve, poor fit]
c1ccc(-c2cn3cccnc3n2)cc1	inconclusive: 18.4 µM [activator, partial curve, poor fit]
O=C(NC(N1CCOCC1)C(Cl)(Cl)Cl)c1ccco1 (configuration not stated)	active: 16.4 µM
O=c1c2c3c(sc2ncn1/N=C/c1ccccc1)CCCC3	inconclusive: 11.6 µM [activator, partial curve, poor fit]

SMILES	Potency
CCCNC(=O)C(=O)N/N=C/c1ccc(OCc2ccccc2)cc1	inconclusive: 23.1 µM [activator, partial curve, poor fit]
COC(=O)c1sccc1NC(=S)Nc1ccc(F)cc1F	inactive
Cc1cc(C2=NNC(=Nc3ccccc3)SC2)c(C)n1C	inconclusive: 3.26 µM [activator, partial curve]
Cc1cc(NC(=O)c2ccc(NC(=O)C(C)C)cc2)no1	inconclusive: 20.6 µM [activator, partial curve, poor fit]
CSc1ccccc1C(=O)NC1CCCCCC1	inactive
Cc1cccc([C@@H]2[C@@H]3C(=O)N(Cc4ccccc4)C(=O)[C@@H]3[C@]3(CC(C)C)C(=O)N(c4cccc(F)c4)C(=O)N23)c1	inactive
CN1CCN(C(=S)c2ccc(-c3cccc([N+](=O)[O-])c3)o2)CC1	active: 10.3 µM
CCc1ccc(/C=N\NC(=O)c2ccc(Br)o2)s1	inconclusive: 13 µM [activator, partial curve]
O=S(=O)(c1ccc(OCc2nc3ccccc3s2)c(Cl)c1)N1CCOCC1	active: 9.2 µM
O=C(NCCc1ccccc1)C(=O)NCC1CCCO1 (configuration not stated)	inconclusive: 23.1 µM [activator, single point]
COc1ccc(Br)cc1CNc1ccccc1	inconclusive: 20.6 µM [activator, partial curve, poor fit]
Cc1ccc(/C=C2\Sc3ccccc3C2=O)s1	inconclusive: 11.6 µM [activator, partial curve, poor fit]
COc1cc(SC)ccc1C(=O)Nc1ccc2c(c1)OCO2	active: 2.59 µM
Cc1ccc(Cn2c(=S)[nH]c3ccc(N4CCOCC4)cc3c2=O)o1	inactive
CN(C)c1ccc(/C=C(/NC(=O)c2ccccc2)C(=O)N2CCCC2)cc1	inactive
COc1cc(/C=C(\C#N)C(=O)Nc2ccccc2F)ccc1OCCN1CCOCC1	inconclusive: 20.6 µM [activator, partial curve, poor fit]
CN(C)S(=O)(=O)c1ccc2nc(NC(=O)c3cccs3)sc2c1	active: 2.31 µM
COc1ccc2c(c1)CCc1c(C(=O)N3CCc4ccccc4C3)noc1-2	inconclusive: 25.9 µM [activator, single point]
Cc1cs/c(=N/C(=S)Nc2ccccc2)n1C	active: 2.91 µM
CC(=O)Nc1cccc(-c2nc3ccccc3o2)c1	inconclusive: 23.1 µM [activator, partial curve, poor fit]
O=C(NCCS(=O)(=O)NCc1ccc(F)cc1)c1ccccc1	inactive
CCC(=O)c1ccc(OCC(=O)O)cc1	inactive
CC1CC(C)CN(C(=O)CSCC(=O)Nc2nc(-c3cccs3)cs2)C1 (configuration not stated)	inconclusive: 29.1 µM [activator, single point]
Cc1ccc(/C=C/c2nc3ccccc3[nH]2)o1	inconclusive: 2.31 µM [activator, partial curve]
Cc1ccc(S(=O)(=O)NCC(=O)NCC2CCCCC2)cc1C	inactive
